Laboratory results from PubChem BioAssay AID488969 (Vanderbilt High Throughput Screening Facility, 2010).
Whole data set: some 110,000 compounds, median “z-score” near -0.1, cut for the highest 2% near 2. The list shows a part of the results. Activity calls are given as the source filed them.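 How the source made its calls: active means z-score in the third read window above 3 or below -3; inactive means the rest.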

Each compound was assayed against Metabotropic glutamate receptor 8 (Rattus norvegicus) (UniProt P70579) (assay: mGluR8 Gi/Go-coupled signaling modulation – cell-based, rat, thallium flux, HTS, primary screen (AID 488969)). Conditions: HEK293 rat mGluR8, GIRK (G protein-gated inwardly rectifying potassium channel) thallium flux, FluoZin2; at 10 µM; stronger effect = higher value; submaximal glutamate (EC20) added with thallium.
Chain of UniProt P70579 (P70579 whole entry, looked up): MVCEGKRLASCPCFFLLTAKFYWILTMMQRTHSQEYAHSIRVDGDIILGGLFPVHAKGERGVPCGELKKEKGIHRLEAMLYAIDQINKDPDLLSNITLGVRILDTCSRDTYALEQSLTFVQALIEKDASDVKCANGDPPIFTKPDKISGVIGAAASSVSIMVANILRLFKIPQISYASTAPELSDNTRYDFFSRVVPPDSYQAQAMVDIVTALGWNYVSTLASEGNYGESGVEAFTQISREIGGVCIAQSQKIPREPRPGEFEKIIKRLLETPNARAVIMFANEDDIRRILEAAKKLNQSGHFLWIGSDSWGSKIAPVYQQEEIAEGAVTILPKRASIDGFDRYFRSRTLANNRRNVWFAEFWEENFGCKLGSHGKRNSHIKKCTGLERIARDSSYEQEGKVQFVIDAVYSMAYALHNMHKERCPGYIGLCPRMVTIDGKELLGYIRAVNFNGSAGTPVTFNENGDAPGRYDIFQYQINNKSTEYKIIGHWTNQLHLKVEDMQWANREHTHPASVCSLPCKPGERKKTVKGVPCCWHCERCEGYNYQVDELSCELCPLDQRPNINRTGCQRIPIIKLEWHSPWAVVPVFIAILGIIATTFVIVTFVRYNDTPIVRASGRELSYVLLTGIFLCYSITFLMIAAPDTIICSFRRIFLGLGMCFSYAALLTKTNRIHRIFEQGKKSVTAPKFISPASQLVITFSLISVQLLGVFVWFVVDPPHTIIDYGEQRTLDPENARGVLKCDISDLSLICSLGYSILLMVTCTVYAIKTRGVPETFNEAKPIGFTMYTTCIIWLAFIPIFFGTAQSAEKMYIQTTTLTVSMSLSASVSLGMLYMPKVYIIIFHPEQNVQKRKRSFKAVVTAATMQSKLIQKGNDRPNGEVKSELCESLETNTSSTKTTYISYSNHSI

SMILES	z-score
O=[N+]([O-])c1ccc(-c2csc(N3CCc4ccccc4C3)n2)cc1	-0.0911
COc1ccc(OCC(O)CN2CCN(c3ncccn3)CC2)cc1 (stereo not drawn)	0.164
CCc1nnc(NC(=O)CC(CN(C)S(=O)(=O)c2ccccc2)c2ccccc2)s1 (stereo not drawn)	-0.278
CCc1cc(C(=O)OC)c(NC(=O)c2cc(Br)cs2)s1	-0.143
CC1(C)C(=O)C2(CCCCC2)C(=O)OC1c1cccn1-c1ccc([N+](=O)[O-])cc1 (stereo not drawn)	-0.14
Cc1cnc(NC(=O)COc2cccc3c2OC(C)(C)C3)s1	0.713
Cc1cc(C)cc(-c2nnc(SCC(=O)c3ccc4c(c3)OCCO4)o2)c1	-0.266
CS(=O)(=O)N(CC(=O)N1CCN(c2cccc(Cl)c2)CC1)C1CCCCC1	-0.185
CCCC(=O)c1ccc(N2CCCCCC2)c(F)c1	0.339
O=C(c1ccccc1)N1CCN(C2CC3CCC2C3)CC1 (stereo not drawn)	-0.439
O=C1[C@H]2[C@@H](C(=O)N1c1cc(Cl)cc(Cl)c1)[C@]1(C(=O)Nc3ccccc31)N1CCC[C@@H]21	-0.354
COCCn1c(SCC(=O)Nc2cc(C)on2)nnc1-c1c[nH]c2ccccc12	-0.41
COc1ccc(C(=O)N2CCSC2=S)cc1OC	0.0858
CCCC(=O)Nc1cccc(-c2cn3ccsc3n2)c1	0.345
Cc1ccc(S(=O)(=O)N2CCN(C(=O)CCC(=O)NC3CCCc4ccccc43)CC2)cc1 (stereo not drawn)	-0.0922
O=C(N/C(=C\c1ccco1)C(=O)N1CCCC1)c1cccs1	-0.372
Cc1onc(-c2ccccc2Cl)c1C(=O)Nc1ccccc1	-0.373
CCOc1ccc(N/C=C/C(=O)c2ccc(OC)cc2)c([N+](=O)[O-])c1	0.427
COc1ccc(/C=C2\CCCC3C2=NN(C(=O)c2scnc2C)C3c2ccc(OC)c(OC)c2)cc1OC (stereo not drawn)	-0.0857
O=C(c1ccccc1)N1CCN(C(=O)N2CCOCC2)CC1	-0.0151
C=CCNc1nc2c3ccccc3n(C(C)=O)c2s1	0.0275
COc1ccc(CC(=O)N2CCN(C(=O)Cc3ccc(OC)cc3)CC2)cc1	-0.234
O=C(COC(=O)CCCSc1nc2ccccc2[nH]1)Nc1cccc(F)c1	-0.826
CCN1C(=O)/C(=C/c2ccc(C)o2)N(C)C1=S	-0.0274
Cc1cc(NC(=O)NC(=O)c2cccc(OC(F)(F)C(F)F)c2)n[nH]1	-0.211
COc1cc2cc(CN(CCO)S(=O)(=O)c3ccccc3)c(=O)[nH]c2cc1OC	-0.115
NC1=NC2(CCCCC2)N=C(Nc2ccc(Br)cc2)N1	0.148

SMILES	z-score
CCCOc1ccc(N2CC(C(=O)Nc3ccccc3C(=O)NCc3ccco3)CC2=O)cc1 (stereo not drawn)	-2.48
CS(=O)(=O)N(CC(=O)Nc1ccc2c(c1)OCO2)Cc1ccc(Cl)cc1	0.287
CC(=O)Nc1cc(C(F)(F)F)ccc1Oc1cccc(Br)c1	-0.653
COc1ccccc1/C=C/C=N/NC(=O)CN1CCN(S(=O)(=O)c2ccc(C)cc2)CC1	-0.279
CCCn1nnnc1NC(=O)CSc1ccc(Cl)cc1	0.464
COc1cc(CNCCc2ccccc2F)ccc1OCc1ccc(Cl)nc1	0.878
O=C(/C=C/c1ccccc1)NC(=S)Nc1ccc(N2CCOCC2)c(Cl)c1	-0.103
O=c1c(C(c2ccccc2)c2c(O)nc3n(c2=O)CCCS3)c(O)nc2n1CCCS2	-0.0703
Cc1ccc(OCC(O)Cn2c(=N)n(CCN3CCCCC3)c3ccccc32)cc1 (stereo not drawn)	active: 4.9
COCCn1c(-c2cccs2)nc2c(c(=O)c3ccccc3n2C)c1=O	-0.58
COc1ccc(C2C(C#N)=C(SCC(=O)Nc3ccc(C)cc3)NC3=C2C(=O)CC(C)(C)C3)cc1 (stereo not drawn)	0.0491
O=C(Nc1ccn(Cc2ccccc2)n1)c1cccc(Cn2cc([N+](=O)[O-])cn2)c1	-0.557
COc1cc(/C=C2/S/C(=N/S(=O)(=O)c3ccccc3)NC2=O)c([N+](=O)[O-])cc1OC	-1.39
O=C(Oc1ccc(C(=S)N2CCOCC2)cc1)c1ccc(Br)cc1	-0.171
O=C(Nc1cccc(F)c1)/C(=C\c1cccnc1)NC(=O)c1cccs1	0.873
CC1(C)CSC(=NCCc2ccccc2)N1C(=O)c1ccc(C#N)cc1	-0.484
COc1ccc(/C=N/Nc2nnc(Cc3ccc(OC)c(OC)c3)c(=O)[nH]2)cc1	-0.268
CN(C)CCNC(NC(=O)c1cccs1)C(Cl)(Cl)Cl (stereo not drawn)	-0.0966
C/C(=C\C(=O)O)CC(=O)O	0.0564
CCOc1ccc(CCNC(=O)CSc2cc(=O)n(C)c3ccc(Cl)cc23)cc1OCC	-0.212
CCOC(=O)C1=C(C)NC(=S)NC1c1cccs1 (stereo not drawn)	0.159
C=CCN(CC=C)S(=O)(=O)c1ccc2nc(NC(=O)C3CCCO3)sc2c1 (stereo not drawn)	-0.21
CCCN1Cc2cccc(C(=O)Nc3cc(OC)cc(OC)c3)c2C1=O	0.264
Cc1ncoc1C(=O)Nc1ccc2c(c1)OCCO2	-0.349
O=C(N/N=C/c1ccc(O)cc1)c1ccc(COc2cc(Cl)ccc2Cl)o1	-0.308
CCCc1cc(=O)[nH]c(SCC(=O)N2CCC(C(=O)OCC)CC2)n1	0.819
